# PubChem BioAssay AID1745853 (National Center for Advancing Translational Sciences (NCATS), 2022)
# Some of the results follow. Shown are side measurements of this screen, not its main read-out; they come without a call.
# How the values were obtained:
# Assay in all cases: Primary Screen for Target Class Profiling of Small Molecule Inhibitors of Methyltransferases
# [1] = biological target: Glycine N-methyltransferase (Homo sapiens) (UniProt Q14749); settings: purified enzyme, MTase-Glo SAH luminescence; measured here: GNMT inhibition; at 40 µM; stronger effect = lower value
# Description: (§1) PI: Matthew D. Hall Ph.D. and Quinlin M. Hanson Ph.D.
# (§2) National Center for Advancing Translational Sciences (NCATS)
# (§3) National Institute of Health (NIH), Rockville, MD
# (§4) Target class profiling (TCP) is a chemical biology approach amenable to investigating understudied biological targets. TCP is achieved by developing a generalizable assay platform and applying it to screen a curated set of compound libraries against representative members of a target class. Small molecule methyltransferases (SMMTase) are a subclass of methyltransferase that act on metabolites to modulate signaling pathways, metabolize xenobiotics, or balance the available methyl pool. We screened four curated libraries totaling 27,574 unique compounds against the SMMTases nicotinamide N-methyltransferase (NNMT), phenylethanolamine N-methyltransferase (PNMT), histamine N-methyltransferase (HNMT), glycine N-methyltransferase (GNMT), catechol O-methyltransferase (COMT), and guanidinoacetate N-methyltransferase (GAMT). The data generated by this TCP can be leveraged for informed tool molecule development. For example, in the associated publication we identified a chemotype of HNMT-selective inhibitors. Additionally, we identified a putative SMMTase-selective inhibitor with potential as a tool molecule for studying broader methyltransferase biology.
# (§5) High-through put screening assays were developed at the National Center for Advancing Translational Science (NCATS) for the enzymes NNMT, PNMT, HNMT, GNMT, COMT, and GAMT. Enzymatic activity was measured as a function of SAM cofactor conversion using the MTase Glo kit (Promega) for all enzymes. All assays were performed in 1536-well format with substrates and SAM concentrations at KM values. Enzyme concentration and assay timing were optimized for 10-20% SAM conversion. Initial screening of 27,574 compounds was done as single-point assays using the highest compound concentration (40 uM). […] These compounds were replated in 11-point dose response and assayed against NNMT, PNMT, HNMT, GNMT, COMT, GAMT, and a counter-assay. The IC50 and efficacy (maximal response) values were determined for each dose-response curve. These values are also accounted for in the area under the curve (AUC) values.
# (§6) PROTOCOL TABLE (as described by Inglese J, Shamu CE and Guy RK. 2007)
# (§7) SEQUENCE No. (e.g., 1, 2, 3, etc.); […] (e.g., Cells, Incubation, Reagent, etc.); VALUE; DESCRIPTION.
# (§8) 1; Reagent; 2 uL; SMMTase Enzyme (2x) in reaction buffer, columns 1- 48.
# (§9) 2; Reagent; 1 uL; SAM (4x) in reaction buffer, columns 1-48.
# (§10) 3; Controls; 23 nL; DMSO in column 4; sinefungin in DMSO (0 uM - 40 uM) in 7-point 1:2 dilution series (n = 2) in column 2.
# (§11) 4; Compounds; 23 nL; Columns 5-48.
# (§12) 5; Reagent; 1 uL; Substrate (4x) in reaction buffer, columns 2-48.
# (§13) 6; Time; 20-30 min; Incubation.
# (§14) 7; Reagent; 1 uL; MTase-Glo reagent (5X), columns 1-48.
# (§15) 8; Time; 30 min; Incubation.
# (§16) 9; Reagent; 5 uL; MTase-Glo Detection reagent, columns 1-48.
# (§17) 10; Time; 30 min; Incubation, luminescence evolution.
# (§18) 11; Detection; Luminescence; ViewLux uHTS Microplate Imager (PerkinElmer).
# (§19) NOTES (numbers refer to Sequence numbers above)
# (§20) 1, 2, 5. White Medium Binding Greiner 1536-well plates (Cat #789175-F, Greiner Bio-One, Monroe, NC); Reaction buffer: 50 mM Tris, pH 8.0, 3 mM MgCl2, 1 mM EDTA, 50 mM NaCl, 1 mM DTT, and 0.1 mg/mL BSA. Evaporation was prevented by covering assay plates with metal lids containing holes to allow gas diffusion.
# (§21) 1. Six SMMTase were profiled: HNMT, GNMT, PNMT, COMT, NNMT, GAMT
# (§22) 5. The corresponding substrate was used for each enzyme: HNMT - 5.3 uM Histamine; GNMT - >500 uM Glycine; PNMT - 16.2 uM Norephinephrine; COMT - 13.7 uM Norephinephrine; NNMT - 3.8 uM Nicotinamide; GAMT - 2.5 uM Guanidinoacetate.6, 8, 10. Room temperature
# (§23) 6. Final reaction conditions: 10 nM COMT, 5 uM SAM, 15 uM norepinephrine, 50 mM Tris, pH 8.0, 3 mM MgCl2, 1 mM EDTA, 50 mM NaCl, 1 mM DTT, and 0.1 mg/mL BSA; refer to tables 2 and S1 for specific timing.
# 8. […]
# [2] = biological target: Histamine N-methyltransferase (Homo sapiens) (UniProt P50135); settings: purified enzyme, MTase-Glo SAH luminescence; measured here: HNMT inhibition; at 40 µM; stronger effect = lower value
# Description: as §1, §2, §3, §4, §5, §6, §7, §8, §9, §10, §11, §12, §13, §14, §15, §16, §17, §18, §19, §20, §21, §22, §23
# 8. […]
# [3] = biological target: Guanidinoacetate N-methyltransferase (Homo sapiens) (UniProt Q14353); settings: purified enzyme, MTase-Glo SAH luminescence; measured here: GAMT inhibition; at 40 µM; stronger effect = lower value
# Description: as §1, §2, §3, §4, §5, §6, §7, §8, §9, §10, §11, §12, §13, §14, §15, §16, §17, §18, §19, §20, §21, §22, §23
# 8. […]
# [4] = biological target: Nicotinamide N-methyltransferase (Homo sapiens) (UniProt P40261); settings: purified enzyme, MTase-Glo SAH luminescence; measured here: NNMT inhibition; at 40 µM; stronger effect = lower value
# Description: as §1, §2, §3, §4, §5, §6, §7, §8, §9, §10, §11, §12, §13, §14, §15, §16, §17, §18, §19, §20, §21, §22, §23
# 8. […]
# [5] = biological target: Phenylethanolamine N-methyltransferase (Homo sapiens) (UniProt P11086); settings: purified enzyme, MTase-Glo SAH luminescence; measured here: PNMT inhibition; at 40 µM; stronger effect = lower value
# Description: as §1, §2, §3, §4, §5, §6, §7, §8, §9, §10, §11, §12, §13, §14, §15, §16, §17, §18, §19, §20, §21, §22, §23
# 8. […]
# % is set by controls: 0 for no effect and ±100 for the full control effect.
SMILES,"activity change, negative = inhibition [1] [%]","activity change, negative = inhibition [2] [%]","activity change, negative = inhibition [3] [%]","activity change, negative = inhibition [4] [%]","activity change, negative = inhibition [5] [%]"
OCC(Cc1ccccc1)Nc1nc(Oc2ccc3c(c2)CCC3)nc2c1ncn2Cc1ccc(-c2ccccc2)cc1 (configuration not stated),2,5.33,–,–,–
COc1ccccc1CNC(=O)c1cc2c(N3CCSCC3)nc(C)cn2n1,-8.34,-18.8,-2.04,-9.19,7.54
COC(=O)c1ncn2c1C(=O)N(c1ccc(C(C)C)cc1)C(C)(C(=O)NC1CCCCC1)C2 (configuration not stated),-1.23,0.786,-0.398,3.27,-0.365
CC(C)OCCCN1C(=O)c2cc3ccccc3n2CC1(C)C(=O)NC1CCCCCC1 (configuration not stated),3.02,4.27,2.19,-14,-1.62
CCCn1c(=O)c2cc(Cl)ccc2n2c(SCC(=O)Nc3ccc4c(c3)OCO4)nnc12,2.98,12.7,0,10.9,6.63
CC1(C(=O)NCc2ccccc2)Cn2c(cc3ccccc32)C(=O)N1CCc1ccc(Cl)cc1 (configuration not stated),-10.8,-0.956,1.4,1.21,-5.14
CC1CCCC(NC(=O)C2(C)Cn3c(cc4sccc43)C(=O)N2Cc2cccc(Cl)c2)C1C (configuration not stated),-1.45,3.3,2.98,2.75,0.737
O=C(c1ccc(F)cc1Cl)N1CCN(C(=O)c2nnn3c2COC(c2ccccc2)C3)CC1 (configuration not stated),-6,-2.83,-7.66,-4.29,-5.87
CC1(C(=O)O)CCN(C(=O)c2cccc(Cl)c2)CC1,-2.99,-1.3,0.455,-4.82,0.442
O=C(Nc1ccccc1)c1ccc(Nc2nnc(-c3ccc(O)cc3)c3ccccc23)cc1,-3.73,3.52,-28.7,-38,-18
COc1cccc(N2C(=O)c3cc(C(C)(C)C)nn3CC2(C)C(=O)NCc2ccccc2)c1 (configuration not stated),-2.45,-0.932,0.554,0.276,-0.12
CNc1nccnc1-c1cccc(CN2CCOCC2)c1,-2.06,1.22,1.98,4.71,6.88
Cc1c(Cl)cccc1NC(=O)N1CCn2c(C)ccc2C1C(C)C (configuration not stated),10.6,0.742,0,-6.22,-1.37
Cc1nc2cc(-c3cc(F)cc(C#N)c3)ccc2s1,-7.91,3.62,-5.81,-19.9,-2.87
CC1(C(=O)NCc2ccccc2)Cn2c(cc3ccccc32)C(=O)N1Cc1cccc(F)c1 (configuration not stated),-3.67,-1.52,2.94,-7.16,-3.85
C[C@H](Nc1ncnc2nc[nH]c12)c1cc2ccc(F)cc2nc1-c1ccccn1,2.95,4.05,3.93,-8.97,4.52
CC1CCN(CC2CCCCCN2C(=O)CC2CCCC2)CC1 (configuration not stated),-1.06,0.918,-0.353,-3.72,-1.01
CCCCN1CCN(C(=O)C2(c3ccc(NS(C)(=O)=O)cc3)CCCCC2)CC1,-3.37,-2.56,-7.21,-3.68,-1.22
CCCCN1C(=O)c2cc(C(=O)NCc3ccc(Cl)cc3)nn2CC1(C)C(=O)NC1CCCC1 (configuration not stated),2.32,3.26,2.48,-2.84,1.4
CC1CCC(NC(=O)C2(C)Cn3c(nc4ccccc43)C(=O)N2Cc2ccc(F)cc2)CC1 (configuration not stated),-9.06,-1.76,-8.54,-17.3,-7.09
CC1(C(=O)NC2CCCCC2)Cn2c(ccc2-c2ccco2)C(=O)N1Cc1ccccc1 (configuration not stated),-8.38,5.26,-2.96,-11.5,-3.11
COc1cccc2c1OCC(NS(=O)(=O)c1ccc(Cl)cc1)C2 (configuration not stated),-8.01,2.69,4.99,5.11,1.99
CCOc1ccccc1NC(=O)N1Cc2c(sc3c2CCCC3)-n2cccc2C1c1ccccc1 (configuration not stated),-1.02,1.93,0,1.44,4.11
C[C@]1(CO)[C@H]2Cc3sc(NC(=O)c4ccco4)nc3[C@@H](CC(=O)NC3CCCC3)[C@]2(C)CC[C@H]1O,-4.19,-0.826,-2.21,-5.87,-0.044
CN(C)CCC(=O)N1Cc2ccccc2CC2(CCCN2Cc2cccnc2)C1 (configuration not stated),-4.12,-4.23,0.212,-3.87,-8.34
COc1cccc(CNC(=O)c2cn3cc(-c4cccc(OC)c4)sc3n2)c1,-9.97,-3.33,-6.1,-13,-2.15
CC(CNC(=O)c1cc2n(n1)CC(C)(C(=O)NC1CCCCC1)N(C)C2=O)c1ccccc1 (configuration not stated),8.26,5.43,1.31,11,3.85
CC(C)NC(=O)c1ccc2c(=O)n(C(C)C)c3nn(CC(=O)Nc4ccc(Cl)cc4)c(=O)n3c2c1,8.26,10.9,3.5,0.247,6.88
CCC(C)NC(=O)c1ccc2c(=O)n(C)c3nnc(SCC(=O)c4ccc(F)cc4)n3c2c1 (configuration not stated),12.9,10.3,0,13.5,12.4
COc1ccc(-c2nnc(-c3ccc(OC)c(S(=O)(=O)N4CCOCC4)c3)o2)cc1OC,-1.68,13.6,2.52,2.28,10.1
